Data taken from PubChem BioAssay AID1347417 (National Center for Advancing Translational Sciences (NCATS), 2020).
Among all 120,000 compounds or so, about 5,300 (4.4%) were called active. The inconclusive results got no clear call from the source; some entries with a clear call stand among them for comparison. The call rests on the fitted dose curve; in most records, active means well fitted inhibition curve with a large enough effect; inconclusive means small, poorly fitted or top-dose-only effect; inactive means no such curve, though single readings can be large or run the other way. Potencies of inconclusive entries are doubtful fits and often do not repeat.

Experiment: qHTS Primary assay for Inhibitors of Plasmodium falciparum Dd2 growth in vitro; further: nearly all actives have a fitted effect of over 65% in size;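 on activity, negative = inhibition: plate controls were DMSO vehicle for no effect and reference drug for full effect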
Conditions: P. falciparum Dd2 growth, SYBR Green, 72 h; activity, negative = inhibition: at 28.9 µM (top of the series) unless noted; series mostly up to 28.9 µM
Outline: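 Infected erythrocytes (Dd2, 0.3% parasitemia, 2.5% hematocrit final) are added to compound in RPMI-1640/Albumax II medium, grown 72 h at 37C in low oxygen, then lysed with saponin/Triton-X containing SYBR Green and read by fluorescence.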
Potency means the concentration at half of the fitted maximal effect; tags describe the fitted curve by direction and shape.

Row | SMILES | activity, negative = inhibition | outcome | Potency
1 | CC(C)CN(Cc1cccnc1)C1CN(C(=O)NCc2ccccc2)C1 | inactive: -14.7% | – | –
2 | COc1ccc(NC(=O)N2C[C@@H]3C[C@H](C2)c2ccc(NC(=O)C4CCCCC4)c(=O)n2C3)cc1 | – | inactive | –
3 | CCOC(=O)Cn1c(=O)oc2cc(S(=O)(=O)N3CCN(c4ccc(Cl)cc4)CC3)ccc21 | – | – | inconclusive: 17.8 µM [inhibitor, single point]
4 | Cc1c(C(C)NC(=O)Cn2ccc(=O)[nH]c2=O)cnn1-c1ccc(F)cc1F (centres undefined) | inactive: -1.14% | – | –
5 | O=C(c1ccco1)N(Cc1cccnc1)c1nc2ccc(F)cc2s1 | – | – | inconclusive: 20 µM [inhibitor, partial curve, poor fit]
6 | CNC(=O)[C@@H]1CN(C(=O)c2ccc3ccccc3n2)C[C@H]1COC | inactive: 0.257% | – | –
7 | COc1cccc([C@@H]2CCN(Cc3[nH]c4ccccc4c3C)C[C@H]2O)c1 | – | – | active: 0.891 µM
8 | O=C(c1c[nH]c2ccccc12)N1CCC(Cc2nncn2CC2CC2)C1 (centres undefined) | inactive: -9.14% | – | –
9 | COc1ccc(CN2CCCC3(C2)C(=NC2CCCCC2)NC(=O)N3c2cccc(OC)c2)cc1 (centres undefined) | – | – | active: 8.91 µM
10 | COCCNC(=O)CCC1CCN(C(=O)c2ccccc2Cl)CC1 | inactive: -2.77% | – | –
11 | CC(C)(C)c1ccc(-c2cc(C[C@H]3CNCC[C@H]3CC(=O)N3CCC(Cc4ccccc4)CC3)no2)cc1 | – | inactive | –
12 | Cc1c(-c2ccc(F)cc2)[nH]c2ccc(CNC(=O)CN3CCOC3=O)cc12 | inactive: -13.8% | – | –
13 | CCC(C)NC(=O)c1cc2c(Cl)nc3ccc(C)cc3c2s1 (centres undefined) | – | – | inconclusive: 0.794 µM [inhibitor, full curve, poor fit]
14 | O=C(Cc1cccs1)N1CCC(c2noc(-c3cccnc3)n2)C1 (centres undefined) | – | inactive [at 5.79 µM] | –
15 | Cc1ccc(-c2cn3c(n2)CO[C@@H](CNC(=O)C2CCCC2)C3)cc1 | – | – | inconclusive: 31.6 µM [inhibitor, single point]
16 | CC1(COc2cccnc2)COc2ccc(C(=O)N3CCN(c4ccccn4)CC3)cc2N1 (centres undefined) | – | – | inconclusive: 20 µM [inhibitor, single point]
17 | C=CCOC(=O)C1=C(C)N=C2SC=C(CC(=O)N3CCCC3)N2C1c1ccc(F)cc1 (centres undefined) | – | – | inconclusive: 1.78 µM [inhibitor, full curve, poor fit]
18 | COc1ccc(CN2CCC[C@H]2c2nc(-c3ccc(N4CCC(C(N)=O)CC4)nc3)no2)c(O)c1 | – | – | inconclusive: 20 µM [inhibitor, single point]
19 | Cc1ccc(CN2CCN(c3cc(NCCO)ncn3)CC2CCO)cc1 (centres undefined) | inactive: -11.2% | – | –
20 | COc1cccc(CN2CC3(CCN(C)C3)c3cc(C(=O)NC4CCCCC4)ccc32)c1 (centres undefined) | – | – | inconclusive: 2.24 µM [inhibitor, full curve, poor fit]
21 | Cc1nn(-c2ccc(C(C)C)cc2)c(C)c1[C@@H]1C=C[C@@H](NC(=O)NC(C)C)C1 | – | – | inconclusive: 5.62 µM [inhibitor, single point]
22 | COCCN1C(=O)c2ccccc2C(C(=O)NCc2ccc(Cl)cc2)C12CCCC2 (centres undefined) | – | – | inconclusive: 8.91 µM [inhibitor, single point]

Row | SMILES | activity, negative = inhibition | outcome | Potency
23 | COc1ccc(Cl)cc1NC(=O)c1cc2nc(-c3ccc4c(c3)OCO4)cc(C(F)(F)F)n2n1 | inactive: 45.1% | – | –
24 | COc1cc(OC)c(NC(=O)Cn2c(C)cc3nc4n(c(=O)c32)CCCCC4)cc1Cl | – | – | inconclusive: 1.41 µM [inhibitor, full curve, poor fit]
25 | O=C(NCc1ccc(C(F)(F)F)cc1)[C@@H]1Cc2nc[nH]c2CN1Cc1ccccn1 | – | – | inconclusive: 0.708 µM [inhibitor, partial curve, poor fit]
26 | Cc1ccc(N2C(=O)CS(=O)(=O)C23C(=O)N(Cc2cccc(F)c2)c2ccccc23)cc1Cl (centres undefined) | – | – | inconclusive: 17.8 µM [inhibitor, single point]
27 | CCCCc1ncc(-c2c(-c3ccccc3)ncn2CC2(CO)CCC2)[nH]1 | – | – | inconclusive: 10 µM [inhibitor, single point]
28 | CCOc1ccc(NS(=O)(=O)c2ccc3[nH]cc(C(=O)NCc4ccco4)c(=O)c3c2)cc1 | – | – | inconclusive: 12.6 µM [inhibitor, single point]
29 | Cc1ccc(N2CCN(C(=O)C3CCCN(c4cnn(Cc5ccccc5)c(=O)c4)C3)CC2)cc1 (centres undefined) | – | – | inconclusive: 2.51 µM [inhibitor, partial curve, poor fit]
30 | CCn1cc(C(=O)N2CCCC(CCc3cccc(F)c3)C2)cn1 (centres undefined) | inactive: 1.64% | – | –
31 | Cc1cccc(CC(=O)N2CCC(c3noc(COCC4CC4)n3)CC2)c1 | inactive: -11.1% | – | –
32 | O=C(c1ccc(F)cc1)N1CCC2(CC1)NC(=O)N(c1ccccc1Cl)N2 | – | inactive | –
33 | CCN(CC)S(=O)(=O)c1ccc(NC(=O)[C@H](CSCc2ccccc2)N2Cc3ccccc3C2=O)cc1 | – | – | active: 5.01 µM
34 | Cc1nnc(-c2cc(C(=O)NCCc3ccccc3)ccn2)n1Cc1cccnc1 | – | inactive [at 44.1 µM] | –
35 | O=C(CN1CCOCC1)N[C@@H]1CCOC[C@H]1Oc1ccc(C(=O)O)cc1 | inactive: -2.63% | – | –
36 | O=C1NCc2ccccc2CC12CCCN2Cc1ccnc(Cl)c1 (centres undefined) | – | – | inconclusive: 14.1 µM [inhibitor, single point]
37 | COc1cccc(N2CCN(C(=O)C3CCN(c4cnc5nccnc5c4)CC3)CC2)c1 | – | – | inconclusive: 3.98 µM [inhibitor, single point]
38 | O=C(NCCCn1cccn1)C1CN(S(=O)(=O)c2cccnc2)CC12CCCCC2 (centres undefined) | – | – | inconclusive: 1.58 µM [inhibitor, single point]
39 | O=C(c1ccoc1)N1CCC(Nc2cccnc2)C1 (centres undefined) | inactive: 16.8% [at 5.79 µM] | – | –
40 | COc1cccc(-c2nc3cnccn3c2NCCC(=O)N2CCCC(C)C2)c1 (centres undefined) | – | – | inconclusive: 20 µM [inhibitor, partial curve, poor fit]
41 | CC(=O)NC(CO)C(=O)N1CCc2c(nc(-c3cccnc3)nc2N(C)C)C1 (centres undefined) | inactive: -2.41% | – | –
42 | O=C(NC1CCCCC1)[C@@H]1C[C@@H](O)CN1C1CCN(C(=O)c2ccccc2)CC1 | – | – | inconclusive: 10 µM [inhibitor, single point]
43 | O=C(Cn1c(-c2cccs2)cc2ccccc21)NCCCN1CCN(c2cccc(Cl)c2)CC1 | – | – | active: 11.2 µM
44 | Cc1ccccc1C(=O)NC(C(=O)N1CCCCC1)C1CCN(C(=O)CC(C)(C)C)CC1 (centres undefined) | – | inactive | –
